# The supplement of paper PMC8512760
# This is one part of the list. Repeats are few or missing, and single values can be far off.
# Key:
# Assay in all cases: cell viability relative to vehicle (% of vehicle); basal-like triple-negative breast cancer lines; higher = less cytotoxic
# Conditions in all cases: 10 µM; 72 h
# HCC-1143 = tested on: HCC-1143
# HCC-1187 = tested on: HCC-1187
# MDA-468 = tested on: MDA-468
# SUM-149 = tested on: SUM-149
# 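Also: stably firefly luciferase-GFP labeled cells in 96-well plates, viability read as luciferase photon flux after d-luciferin addition, treated wells normalized to vehicle wells, single-dose high-throughput screen.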
compound,measurement,setting,value
CCOC(=O)C1=C(COCCN)NC(C)=C(C(=O)OC)C1c1ccccc1Cl (stereo not given) [Amlodipine],cell viability,HCC-1143,82
same,cell viability,HCC-1187,66
same,cell viability,MDA-468,87.1
same,cell viability,SUM-149,94.9
COc1ccccc1OCC(O)CN1CCN(CC(=O)Nc2c(C)cccc2C)CC1 (stereo not given) [Ranolazine],cell viability,HCC-1143,75.1
same,cell viability,HCC-1187,106
same,cell viability,MDA-468,116
same,cell viability,SUM-149,103
CC(c1ncncc1F)C(O)(Cn1cncn1)c1ccc(F)cc1F (stereo not given) [Voriconazole],cell viability,HCC-1143,92.8
same,cell viability,HCC-1187,71
same,cell viability,MDA-468,87.6
same,cell viability,SUM-149,112
COc1cc2nccc(Oc3ccc(NC(=O)C4(C(=O)Nc5ccc(F)cc5)CC4)cc3)c2cc1OC.O=C(O)CC(O)C(=O)O [Cabozantinib malate (XL184)],cell viability,HCC-1143,71.5
same,cell viability,HCC-1187,88.3
same,cell viability,MDA-468,121
same,cell viability,SUM-149,84.9
COC1=CC(=O)C[C@@H](C)[C@]12Oc1c(Cl)c(OC)cc(OC)c1C2=O [Griseofulvin],cell viability,HCC-1143,108
same,cell viability,HCC-1187,66.9
same,cell viability,MDA-468,116
same,cell viability,SUM-149,101
